PubChem BioAssay AID1745845 (National Center for Advancing Translational Sciences (NCATS), 2022)
Out of some 360,000 compounds screened, about 2,600 (0.72%) were called active. Inconclusive means that the source gave no clear call. Such entries were picked first, then a sample of the others. The call rests on the fitted dose curve; in most records, active means well fitted inhibition curve with a large enough effect; inconclusive means small, poorly fitted or top-dose-only effect; inactive means no such curve, though single readings can be large or run the other way. A potency beside an inconclusive call is a rough fit, not a confirmed value.

Assay: Primary qHTS for Inhibitors of ATXN expression; further: nearly all actives have a fitted effect of over 55% in size
Settings: HEK-293 ATXN2-luciferase reporter, luminescence, 24 h; activity change, negative = inhibition: at 57 µM (top of the series)
Summary of the method: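 ATXN2-luciferase reporter cells (luciferase flanked by upstream and downstream ATXN2 gene portions) were treated 24 h at 37 °C with compounds at up to 57 uM. SteadyGlo luminescence gave expression; GF-AFC fluorescence gave viability.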
On the % scale 0 is the no-effect control and ±100 the full control effect; potency means the concentration at half of the fitted maximal effect; tags describe the fitted curve by direction and shape.

Potency, active:
CN(C)CCNC(=O)c1cccc2nc3cccc(F)c3nc12 8.91 µM
COc1cccc(/C=N/NC(=O)Cn2nc(C)c([N+](=O)[O-])c2C)c1O 15.8 µM
COc1ccc(CC(N)c2csc(Nc3ccc(C(=O)c4ccccc4)cc3)n2)cc1 (stereo not given) 35.5 µM
Nc1c(C(=O)NCc2ccccc2)c2nc3ccccc3nc2n1-c1ccc2c(c1)OCO2 22.4 µM
CN(C)CCNC(=O)c1ccc(Cl)c2cc3ccccc3nc12 8.91 µM
COC(=O)c1ccc2c(C(=Nc3ccc(N(C)C(=O)CN4CCN(C)CC4)cc3)c3ccccc3)c(O)[nH]c2c1 24.3 µM
CC(C)(C)OC(=O)CNC(=O)c1[nH]cnc1C(=O)Nc1ccc(CNC(=O)OC(C)(C)C)cc1 31.6 µM

Potency, inconclusive:
Cc1cc(Nc2cc(N3CCN(C)CC3)nc(C=Cc3ccccc3)n2)n[nH]1 31.4 µM [inhibitor, partial curve]
CC(=O)NCCCNC(=S)NCCCN(Cc1ccc(Cl)cc1)c1ccc(Br)cn1 39.8 µM [inhibitor, single point]
Cc1cccc(C(=O)Nc2cccc(-c3ccc4nncn4n3)c2)c1 8.91 µM [inhibitor, partial curve, poor fit]
Cc1ccc(/C=N/Nc2cccc(C(=O)O)c2)s1 12.6 µM [inhibitor, single point]
COc1ccc2c(C(=O)NCc3ccc4c(c3)OCO4)c(-c3ccc(S(C)(=O)=O)cc3)sc2c1 31.6 µM [inhibitor, single point]
O=C(O)c1ccc(Nc2nc3c(s2)CCCC3)cc1 11.2 µM [inhibitor, single point]
CCN1C(=O)[C@H]2[C@H]3CN=C(SCc4ccc(Cl)cc4)N3[C@@](CC)(C(=O)OC)[C@H]2C1=O 39.8 µM [inhibitor, partial curve, poor fit]
Cc1ccc(C(=O)/C=C/c2ccccc2[N+](=O)[O-])cc1 37.7 µM [inhibitor, single point]
Cc1oc2cc3oc(=O)c(CCC(=O)N4C[C@H]5C[C@@H](C4)c4cccc(=O)n4C5)c(C)c3cc2c1C 10.6 µM [inhibitor, partial curve, poor fit]
CCOC(=O)c1ccc(N2C(=O)C=CC2=O)cc1 39.8 µM [inhibitor, single point]
CCCCCCCNC(=O)C1(CC2CC(c3cccc(Br)c3)=NO2)CCN(C(=O)C2(C)CC2)CC1 (stereo not given) 35.5 µM [inhibitor, single point]
Cc1c(C(=O)NCc2cccc(Cl)c2)sc2ncnc(N(C)C3CCCCC3)c12 39.8 µM [inhibitor, single point]
Cc1cc(NC(=O)CSc2nc(-c3ccco3)cc(C(F)(F)F)n2)n(-c2ccccc2)n1 10 µM [inhibitor, partial curve, poor fit]
Cc1ccc(C)c(Nc2nn3c(=O)c4ccc(C(=O)NCc5cccnc5)cc4nc3s2)c1 0.562 µM [inhibitor, partial curve, poor fit]
O=C1[C@H](Cc2ccccc2)NCCCC[C@H](c2ccc(Cl)cc2)N1Cc1ccccc1 25.1 µM [inhibitor, partial curve, poor fit]
Clc1ccc(Nc2nnc(Cc3ccncc3)c3ccccc23)cc1 35.5 µM [inhibitor, partial curve, poor fit]
COc1cc(OC)cc(C2=Cc3ccccc3C(CC(C)=O)N2c2ccc(C#CC3(N)CCCCC3)cc2)c1 (stereo not given) 31.6 µM [inhibitor, single point]
C#CCOCCOCCOCCNc1nc(N2CCN(C(=O)CCCCCCCCCCNC(=O)[C@H](CCCCN)n3cc(C)nn3)CC2)nc(N2CCN(C(=O)CCCCCCCCCCNC(=O)[C@H](CO)n3cc(CCCSC)nn3)CC2)n1 31.6 µM [inhibitor, single point]
Cc1ccc(C)c(N2CCN(C(=O)C34CC5CC(C3)CC(n3nnc(C)n3)(C5)C4)CC2)c1 29.9 µM [inhibitor, partial curve]
O=C(CSc1ncn[nH]1)NCCC(c1ccccc1)c1ccccc1 17.8 µM [inhibitor, partial curve, poor fit]
COc1ccc(S(=O)(=O)c2cnc3ccc(Cl)cc3c2N2CCCCC2C)cc1 (stereo not given) 39.8 µM [inhibitor, single point]
FC(F)(F)c1cc(Cl)c2nc(-c3ccco3)c(Cc3ccccc3C(F)(F)F)n2c1 39.8 µM [inhibitor, single point]
C#CCn1c(=NC(=O)c2sc3ccccc3c2Cl)sc2cc(S(N)(=O)=O)ccc21 17.8 µM [inhibitor, partial curve]
OC(c1ccc(Cl)c(F)c1)c1ncc(-c2ccc(Oc3ccccc3)cc2)[nH]1 (stereo not given) 39.8 µM [inhibitor, single point]
O=C1CC(c2cccc([N+](=O)[O-])c2)c2cc3c(cc2N1)CCC3 (stereo not given) 35.5 µM [inhibitor, partial curve, poor fit]
O=C(NCCc1ccccc1)c1nc(-c2ccc(Cl)cc2)n2c1CCCCC2 39.8 µM [inhibitor, single point]
COc1ccc(Cn2cnc3c(N)c(C)c(C)cc32)cc1 0.844 µM [inhibitor, full curve, poor fit]
CN1OC[C@@H]2CN(Cc3ccc(Cl)cc3)[C@H](c3ccc(-n4ccnc4)cc3)C[C@@H]21 39.8 µM [inhibitor, partial curve, poor fit]
CCC(C(=O)OCC(=O)Nc1ccc(OC)cc1OC)c1ccccc1 (stereo not given) 0.844 µM [inhibitor, partial curve, poor fit]
COC(=O)c1nn(-c2ccc3c(c2)CCN3C(C)=O)cc1O 10 µM [inhibitor, partial curve, poor fit]
COc1ccc(CCNC(=O)c2cc3c(F)cccc3s2)cc1OC 31.6 µM [inhibitor, single point]
Cc1ccc(S(=O)(=O)c2nc(S(C)(=O)=O)sc2N2CCCCC2C)cc1 (stereo not given) 12.6 µM [inhibitor, partial curve, poor fit]
CC(=O)Nc1ccc(-c2csc(NC(=O)Nc3ccccc3)n2)cc1 29.9 µM [inhibitor, partial curve, poor fit]
COc1ccc(C(=O)NC(=O)Nc2cc(C)ccn2)cc1 12.6 µM [inhibitor, partial curve, poor fit]
CCN(CC)C1=CC(=[N+]2CCCC2)CC(C)(C)C1 5.32 µM [inhibitor, partial curve, poor fit]
O=C(Nc1ccc(N2CCN(C(=O)c3ccccc3)CC2)c(Cl)c1)c1ccc(Br)o1 20 µM [inhibitor, partial curve, poor fit]
CCCCN1CC(O)=C(c2nc(-c3ccc(Cl)cc3)cs2)C1=N 11.2 µM [inhibitor, partial curve, poor fit]
CCCCC(=O)OC1=C(C(=O)c2ccccc2)N(CCC)S(=O)(=O)c2ccccc21 22.4 µM [inhibitor, partial curve]
COc1ccccc1NC(=S)NC(=O)c1ccc(-c2ccc(Cl)cc2)o1 22.4 µM [inhibitor, partial curve, poor fit]
Cc1ccc(S(=O)(=O)Nc2cccc(-c3cn4cccc(C)c4n3)c2)c(C)c1 39.8 µM [inhibitor, single point]

Activity change, negative = inhibition, inactive:
O=C(COCCOCC(=O)N(c1ccccn1)C1CCCCC1)N(c1ccccn1)C1CCCCC1 2.26%
COc1ccc([C@H]2CC(=O)C[C@@H](CCn3cc(C(C)C)nn3)O2)cc1 -0.616%
COc1cc(OC)cc(C(=O)NCC(=O)Nc2ccc(OC)c(Cl)c2)c1 -19.2%
COc1ccc(-c2nc3ccccc3c(=O)n2CCOc2cccc(C)c2C)cc1 1.76%
N#C/C(=C\c1ccc(-c2ccc(C(=O)O)cc2)o1)C(=O)Nc1ccccc1C(=O)O 13.5%
COc1ccc(CCC(=O)Nc2ccc(-c3noc(-c4ccc(OC)c(OC)c4)n3)cc2)cc1 -30.4%
Cc1ccc(N2CCN(/N=C/c3sccc3C)CC2)cc1 2.79%
O=C(N/N=C/c1cn(-c2cccs2)nc1-c1ccccc1)c1ccccc1O 0%
C#Cc1ccc(-c2ccccc2F)cc1 5.74%
O=C(O)Cn1nc2c3c(cccc3c1=O)-c1ccccc1-2 6%
CCOc1ccc(N(CC)S(=O)(=O)c2cc(Br)cc3c2N(C(C)=O)C(C)C3)cc1 (stereo not given) -9.04%
CCOc1ccc(C(=O)Nc2ccc(NC(=O)c3cccs3)cc2)cc1[N+](=O)[O-] -20%
Cc1ccc(NC(=O)C2CCCN(S(=O)(=O)c3c(C)noc3C)C2)nc1 (stereo not given) 1.4%
Cc1cccc2cc(C#N)c(NCCNC(=S)NCCCN3CCOCC3)nc12 -26%
O=C(NCCCNc1ccc(C(F)(F)F)cc1[N+](=O)[O-])c1ccc(Cl)cc1 -14.5%
Cc1cc(=O)n(Cc2ccccc2)c(O)c1C#N -5.61%
CCN(C(=O)CSc1nc(N)cc(=O)[nH]1)c1c(N)n(Cc2ccccc2)c(=O)[nH]c1=O -1.34%
CCn1c(N2CCN(C(=S)NC)CC2)nc2ccccc21 -6.01%
